Source: the supplement of paper PMC11417369
The other results are listed elsewhere or left out.

tested on: PF3D7_0420300 AP2 domain 1 (GST-tagged); experiment: gcPBM binding intensity (ln(normalized median fluorescence intensity)); higher = stronger DNA binding
Method in brief: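 Probes on an Agilent 4 × 180k array were primer-extended, double-stranded and 36 bp long, taken from intergenic genomic regions, with negative controls added. GST-tagged P. falciparum DNA-binding domains from E. coli, about 25 μg on average, were applied to the array for 1 h in 1× PBS containing 1% milk, 0.2 mg/ml BSA, 0.5% salmon testes DNA and 0.03% Triton X-100. Binding intensity, obtained after Alexa488 anti-GST antibody detection and a 488 nm scan, is the highest Masliner-normalised natural-log median intensity across replicate spots of either probe orientation.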

Sequence | gcPBM binding intensity (ln)
CATATAATTATTGAAAGTACATACAAATAAAAAGAT [XGTACX_site6535] | 9.67
ATATTTTTATTTAAATCACATCATTTTGTTTATTTG [CACACA_negctrl_site1056] | 9.38
ATATATATATGTATATGTACATATATATACACATAT [XGTACX_site140] | 9.23
TAAATATATTTATATTGTACATTTATGTTGATACCA [XGTACX_site228] | 9.15
TATATATATAATATATGTACTGATATGCTATTTACT [XGTACX_site841] | 9.32
ATATTTACCACTGTATGTACATATATAAAATATATC [XGTACX_site6373] | 9.36
TTTTGTGAATTTTAGATTTTTTAATACAAGAATATT [CACACA_negctrl_site606] | 8.85
AAAAAAAAAGGTACTACACACTATTATCAATAGAAA [CACACA_site91] | 9.47
TACTTATTATGAAACACACACCAAAACTACAGAATA [CACACA_site6265] | 9.79
CAAAATAAAAAATTCACACACATATAAATATAAATA [CACACA_site7065] | 9.78
TTTTGAAGAAAATTCTTTTTTTTTTTTTTTTGTAAA [CACACA_negctrl_site102] | 8.47
ATATAATGACAAGTATAAGTATCACAAAGAAATAAA [CACACA_negctrl_site1403] | 9.43
CCACTTTTTGAAGACACACACAAAAAAAAAAAAAAA [CACACA_site2551] | 8.98
ATAACAATTATTTGTCGACACACGTATATGTTATTT [CACACA_site1766] | 9.64
CAAGCTTTTTCCTTTACACACATTAATTATATATAT [CACACA_site1423] | 9.63
CATTTTTCTATATGTGCATGTAAGATAAGAATAATT [TGCATGCA_site107] | 9.06
TCATATAATATTTATATGCACACTTTTCTATATATA [CACACA_site4075] | 9.42
TTTCGTCATTTTGTTTTTAATTCTACAATTTAGTTA [XGTACX_negctrl_site286] | 9.43
AAAATAGCTGTATAGAGTACATATAAATAATGTTGT [XGTACX_site5692] | 9.31
TAAAATAAAAGTGAAACACACAGTATTTTACAACAT [CACACA_site3811] | 9.45
TGCAAAAAATTCCACACACACACACGCATATAAATA [CACACA_site6696] | 10.1
TTTTTAACATTTAAATGTACATGTTACAATTTAAAG [XGTACX_site8789] | 8.88
TACTAAAACCCATACACACACATATATATAGTACCA [CACACA_site3184] | 9.98

Sequence | gcPBM binding intensity (ln)
ACAGCATAATCATGCTGTACATTATTTTCTTAAGTA [XGTACX_site8456] | 9.03
AGAGACTTAGAAAACACACATACATAAGATAATTTA [CACACA_site2377] | 9.54
ACTTACACATTTATTACACACATAAAGGAAAATTTT [CACACA_site1356] | 9.7
ATATTTAAATGGATCACACATATATATATATATATA [CACACA_site5255] | 9.15
TTAAAAAATAACAAGGTGCAAATAGGTTTATAAAAT | 9.7
CACTAATAGTGGATTACACACATATATATGTATATA [CACACA_site2531] | 9.35
CGCGAAGTAGCATTCACACACAGCAAAATATATATA [CACACA_site3495] | 9.49
AACTATTTTATTATATGTACTTACGAATTTATAAAA [XGTACX_site5262] | 9.03
CACAAAATAAATTAAACACACAACATCAGATATGTA [CACACA_site6529] | 9.59
TAATATACATAATAATGTACATATTTTCATATATAC [XGTACX_site6913] | 9.18
ATAAACTGATGTGTATGTACACATGTAATAATAAAT [XGTACX_site7649] | 9.57
TGTGTTGTAACAAAATGTACGAGCTTGATGTAGAAT [XGTACX_site2293] | 9.39
AATGTAGGTTTATTTACACACAAATATAAATATATA [CACACA_site1523] | 9.5
AATAAAATAATAAAAGCACACAAGAATACAGACAAA [CACACA_site112] | 10.1
TAAGTATAAATATTTACACACATTTGTTTTTTTTTA [CACACA_site7731] | 9.56
ATGTAAAACATAAAATGTACATATTATACAAACTAT [XGTACX_site5797] | 9.55
GGATAATATATTAGAACACACATATATCTGTAAAAA [CACACA_site4266] | 9.42
TAATATAATATATGCACACAAATATGTATATATGTG [CACACA_site2134] | 9.42
AAAGGATATGGACACACACACACATATATATATATA [CACACA_site8686] | 10
CAACACTTATTGAAACGTACGCATATAGTTTCTTTT [XGTACX_site8960] | 9.29
TTTATTTATATTTATACACACAAACATAATACTACT [CACACA_site7039] | 9.58
ATATATTTTTTAAACACACACATAAATATTTGTGTA [CACACA_site2879] | 9.67
TATTTTTCTTTATTGGTACACACGAAAAAAAAATTG [CACACA_site3054] | 9.13

Sequence | gcPBM binding intensity (ln)
AAAATCCAGTTTTCAAAATTGAACAAAAAAAAAATA [GTGCAC_negctrl_site542] | 9.06
AAAATATATATGTATGTTTATATGTTTATATATATT [XGTACX_negctrl_site337] | 9.26
AAAAAAAAATTTAAGTGTACATTCCATTTTAGTTTA [XGTACX_site5286] | 9.11
TCTAAGTATAAAGACACACAGAATAAAAAAAAATAT [CACACA_site2367] | 9.66
TATTTAATATATTTATGTACATATTTATTTATTATT [XGTACX_site524] | 9.38
AAGAAGCATAAATGTACACACATATTTATATATCAA [CACACA_site6743] | 9.51
TATTAAAGGGGTTTCACACACATGTATAATTAATTT [CACACA_site200] | 9.5
AATTTGTTATGTATATGTACATAAATAGATATATGA [XGTACX_site3930] | 9.11
AATATGAACAGACACACACACACAAAAAAAAAAAAA [CACACA_site2012] | 10
AACCATATTTAGATTACACACAGTTTAAATATTTTA [CACACA_site6712] | 9.37
TCGTCTCTTCTTGTTCTGTTTTAGAAGGCTATATAT [CACACA_negctrl_site180] | 9.42
TCCAGGTATTTATTCTGTACACATAAAACATTTTAT [XGTACX_site8472] | 9.31
AGGAGGTCAGTTCACAGTACCCAGAAAACTCTACGA [XGTACX_site1992] | 9.03
ATATATATATATATATGTACATATTTTAATAATTAA [XGTACX_site8549] | 8.98
CGCGCACACGGACACACACACACACGGATATAAATA [CACACA_site7102] | 10.2
TGTTGTTACATATATACACACATATATATATTATAT [CACACA_site2397] | 9.45
TAATATAGTATAGTATGTACATATAATTAGAATATT [XGTACX_site4053] | 9.46
TGGTATATATTTCCTTGTACATATAATATATATTGT [XGTACX_site3961] | 9.45
TTGGATTTTCCATAATGTACACATAAAAGTGTTACA [XGTACX_site4544] | 8.76
TTTTAAAAAATATAATATAATATAATATAAAATAAA [CACACA_negctrl_site154] | 8.97
CAAAACCTACATAACATACACACGCATATATAGAAT [CACACA_site2846] | 9.84
TTCTTATCAAGAGAAAGTACATAAAAAATTAATAAG [XGTACX_site1821] | 9.08
CCAACAAAAATAAGCACACACAAATATACATACATA [CACACA_site3606] | 10.1

Sequence | gcPBM binding intensity (ln)
CATGCAATATTAAACACACACTCATATAGCACAATA [CACACA_site6182] | 9.73
ACAGTATCTGGTAGCTGTACGGATTGTAGAGAGTAG [XGTACX_site4872] | 9.19
AGAATAATAAAATGGGTGCAATAGTTTTTTTTTTTT [GTGCAC_site9823] | 9.34
GTTCATACTTAATATTGTACTTTTCATGTAGTGTAT [XGTACX_site6613] | 9.39
TAACATATTTTTAATACACACTCAAAAAAGTACTTA [CACACA_site5638] | 9.2
AAATAAATATTTATATGTACATATATTTTATAATAC [XGTACX_site7041] | 9.13
TACAAATATATATGCACACACATATACATACATATA [CACACA_site2182] | 9.79
TATTAGATATAATATATACACACCAACGAACGAAGA [CACACA_site1134] | 9.87
TTCATTCAAATTAACGTGCACATTATTAGTAAAAAC | 9.08
TTATATAATTTAATAGTGCAATTATATTAATTTTTC | 8.88
TATACCTATAGACACACACACATATAGATTTATATA [CACACA_site7124] | 9.98
CGCATACACAGACACACACACACATATAAATATGTA [CACACA_site6444] | 9.92
AATTTTTTATTAAACACACAAACATATATATATATA [CACACA_site1937] | 9.18
CATATTTCTTTATTGGCACACATTTTTTCAATTATA [CACACA_site1618] | 9.44
AAAAAAAAAAAAAACACACACAAATTTAATCTATAT [CACACA_site6894] | 9.91
TGTTATTACTTTATATCATCTTAAAATAAGCATATT [CACACA_negctrl_site1501] | 8.96
TGAAATAAATAATGCACACTCTACAGATATACGTAT [CACACA_site5270] | 9.46
TTGAAAATACAAAATTGTACAAAGATTTAAATAAAA [XGTACX_site1182] | 9.05
TTTATTTATTACAATTTTTGAATCACCACACAGTCG [GTGCAC_negctrl_site413] | 9.01
ATCATGTTATATACATGTACATATATATATATATAT [XGTACX_site1329] | 9.16
